Assay results from PubChem BioAssay AID485294 (National Center for Advancing Translational Sciences (NCATS), 2010).
The whole screen tested about 370,000 compounds, of which about 150 (0.041%) were called active. The inconclusive results got no clear call from the source; some entries with a clear call stand among them for comparison. The call rests on the fitted dose curve; in most records, active means well fitted inhibition curve with a large enough effect; inconclusive means small, poorly fitted or top-dose-only effect; inactive means flat fitted curve, though single readings scatter. Potencies of inconclusive entries are left out as doubtful fits.

Molecular target: Beta-lactamase (Escherichia coli (strain K12)) (UniProt P00811)
Experiment: qHTS Inhibitors of AmpC Beta-Lactamase (assay with detergent); further: nearly all actives have a fitted effect of over 25% in size;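 on activity change, negative = inhibition: 0% = no-compound wells and -100% = no-enzyme wells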
Conditions: AmpC hydrolysis of nitrocefin, absorbance 480 nm, 0.01% Triton; activity change, negative = inhibition: at 114 µM (top of the series)
Method in brief: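 AmpC (5.3 nM in the dispensed reagent) in 20 mM phosphate pH 7.0 with 0.01% (detergent screen) or 0.0001% Triton X-100 was preincubated with compounds for 15 min at room temperature. Nitrocefin was then added from an 800 uM solution, and hydrolysis was followed at 480 nm.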
Potency means the concentration at half of the fitted maximal effect; tags describe the fitted curve by direction and shape.

Sequence of UniProt P00811 (P00811 whole entry, looked up): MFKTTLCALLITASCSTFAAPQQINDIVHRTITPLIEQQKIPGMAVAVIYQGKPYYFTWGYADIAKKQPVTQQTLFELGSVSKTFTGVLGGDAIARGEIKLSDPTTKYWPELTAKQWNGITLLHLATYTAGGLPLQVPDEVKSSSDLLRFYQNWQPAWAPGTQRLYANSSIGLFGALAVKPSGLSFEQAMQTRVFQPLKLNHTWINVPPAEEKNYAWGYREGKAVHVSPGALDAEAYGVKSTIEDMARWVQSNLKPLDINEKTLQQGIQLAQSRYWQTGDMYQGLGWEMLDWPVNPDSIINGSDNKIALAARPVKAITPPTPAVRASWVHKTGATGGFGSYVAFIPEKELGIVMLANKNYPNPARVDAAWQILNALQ

SMILES | Potency | activity change, negative = inhibition
CSc1ccccc1C(=O)N1CCc2ccccc2C1 | inconclusive [inhibitor, full curve, poor fit] | –
COC(=O)[C@H](CCSC)NC(=O)Nc1ccc(C)cc1 | inconclusive [inhibitor, full curve] | –
CN(C)c1ccc(N=Nc2ccccc2C(=O)OCC(=O)Nc2ccccc2C(F)(F)F)cc1 | – | inactive: -9.05%
CCn1cc(/C=C(\NC(=O)c2ccc(OC)c(OC)c2)C(=O)NCCCn2ccnc2)c2ccccc21 | – | inactive: 21.2%
CCOC(=O)N1CCN(C(=O)CN(c2ccc(C)c(C)c2)S(=O)(=O)c2ccccc2)CC1 | inconclusive [inhibitor, full curve] | –
COc1ccc(/C=C2\CCCC3C2=NN(C(=O)CSc2ncn[nH]2)C3c2ccc(OC)cc2)cc1 (stereo not drawn) | – | inactive: 0.269%
COc1ccc(CN(C)CC2CCCN(CCc3ccc(F)cc3)C2)c(OC)c1OC (stereo not drawn) | inconclusive [inhibitor, full curve, poor fit] | –
C[C@]12C[C@H](O)[C@@H]3c4ccc(O)cc4CCC3[C@@H]1CCC2=O (stereo partly drawn) | – | inactive: 2.56%
C=CCN1C(=S)CC(c2ccccc2)=Nc2ccccc21 | inconclusive [inhibitor, partial curve, poor fit] | –
O=C(Cn1ncc(N2CCOCC2)c(Cl)c1=O)c1ccc(Cl)cc1 | inconclusive [inhibitor, full curve, poor fit] | –
COc1cccc(/C=C(\C#N)c2nc3ccccc3c(=O)[nH]2)c1OC | inconclusive [inhibitor, single point] | –
NC(=O)CCC1NC(=S)N(Cc2ccccc2)C1=O (stereo not drawn) | – | inactive: -10.1%
Cc1ccccc1CSCC(=O)Nc1c(C)n(C)n(-c2ccccc2)c1=O | inconclusive [inhibitor, full curve, poor fit] | –
O=C(O)c1ccc(N/N=C/c2c[nH]c3ccccc23)cc1 | – | inactive: 4.2%
CCN(CC)S(=O)(=O)c1ccc(NC2c3ccccc3C(=O)N2CCN2CCOCC2)cc1 (stereo not drawn) | inconclusive [inhibitor, full curve, poor fit] | –
CN1CCN(CC(C)(C)NS(=O)(=O)c2ccc(Cl)cc2)CC1 | inconclusive [inhibitor, partial curve, poor fit] | –
COc1ccc(NC(=O)Nc2nnc(-c3ccco3)s2)cc1 | inconclusive [inhibitor, full curve] | –
N#C/C(=C\c1ccc(O)c(O)c1)C(=O)NCCc1ccccc1 | inconclusive [inhibitor, full curve] | –
O=S(=O)(c1ccccc1)N1CCc2ccccc2C1 | inconclusive [inhibitor, partial curve, poor fit] | –
C=CCOc1cccc(C2C(C(=O)c3ccc(C)o3)=C(O)C(=O)N2c2nnc(C)s2)c1 (stereo not drawn) | inconclusive [inhibitor, single point] | –
COc1ccc2c(c1)c(=O)c(C(=O)c1ccc(C)cc1)cn2CC(=O)Nc1ccc(F)cc1 | inconclusive [inhibitor, full curve, poor fit] | –
Cc1ccc(-n2nc3ccc(NC(=O)c4ccco4)cc3n2)cc1 | inconclusive [inhibitor, single point] | –

SMILES | Potency | activity change, negative = inhibition
Cc1ccc(Cl)c(OCCN2CCCC(C)C2)c1 (stereo not drawn) | – | inactive: -1.67%
O=C(NCc1nc2ccccc2[nH]1)C1=C[C@@H](c2csc3ccccc23)C[C@@H](OCCCCO)O1 | – | inactive: -2.56%
O=C(CC1Nc2ccccc2NC1=O)c1ccccc1 (stereo not drawn) | – | inactive: -18.6%
O=C(Nc1ccccc1)c1ccc(NCCc2ccccc2)c([N+](=O)[O-])c1 | inconclusive [inhibitor, partial curve] | –
O=C(NCc1ccccc1)c1ccc2c(=O)n3c(nc2c1)CCCCC3 | inconclusive [inhibitor, full curve, poor fit] | –
CCC(C)(C)c1ccc(OC(=O)c2cccnc2Cl)cc1 | inconclusive [inhibitor, full curve] | –
O=C(N/N=C/c1ccsc1)c1ccccn1 | – | inactive: -1.99%
Nc1ccc2c(c1)Cc1ccccc1-2 | inconclusive [inhibitor, partial curve, poor fit] | –
Cc1noc(C)c1COc1ccc(C(=O)NNC(=O)c2ccccc2O)cc1 | inconclusive [inhibitor, full curve] | –
CCCN(CC(=O)Nc1ccc(Cl)cc1Cl)Cc1cc(=O)n2ccsc2n1 | inconclusive [inhibitor, single point] | –
Nc1nc(N2CCCCC2)nc2ccccc12 | inconclusive [inhibitor, partial curve, poor fit] | –
N#Cc1ccc(N2C(=O)[C@@H]3C(C(=O)C(c4ccccc4)c4ccccc4)=NN[C@@H]3C2=O)cc1 | inconclusive [inhibitor, single point] | –
CCC(C)[C@H](NC(=O)NC(C)C)C(=O)O (stereo partly drawn) | inconclusive [inhibitor, partial curve, poor fit] | –
CC(C)CC(NC(=O)C1CCC(C)CC1)C(=O)OCC(=O)c1ccc(Cl)cc1 (stereo not drawn) | – | inactive: -10.5%
Cc1ccc(-c2csc3nc(=O)c(C)nn23)cc1 | inconclusive [inhibitor, full curve, poor fit] | –
Cc1ccc(-n2c(Cc3cccn3C)nnc2SCC(=O)Nc2nnc(C)s2)cc1 | inconclusive [inhibitor, single point] | –
CCOc1ccc(Nc2c(S(=O)(=O)c3ccccc3)cnc3ccc(CC)cc23)cc1 | – | inactive: 21.7%
O=C(Nc1ccccc1Cl)N1CCCN(c2nc(-c3ccccc3)ns2)CC1 | – | inactive: 6.21%
COc1ccccc1NS(=O)(=O)c1cc2c(cc1C)NC(=O)CO2 | inconclusive [inhibitor, partial curve] | –
COc1ccc(-c2cc(C(=O)Nc3cc(OC)cc(C(=O)Nc4cccc(C(F)(F)F)c4)c3)[nH]n2)cc1 | – | inactive: -2.16%
O=C1C2C3C=CC(CO)(O3)C2C(=O)N1c1ccccc1-c1ccccc1 (stereo not drawn) | inconclusive [inhibitor, partial curve, poor fit] | –
